Data as given in PubChem BioAssay (NCATS).
Several values for one entry are separate records, joined by “and”; a condition that tells them apart may be missing. Equal values may be shown once. The shares of active, inactive and inconclusive entries below differ from those in the screen. For some of these results: Potencies of inconclusive entries are doubtful fits and often do not repeat. For some of these results: “Side channel” marks fits to a control or component signal instead of the main read-out. Activity calls are given as the source filed them. Unless noted, calls come from the whole dose curve; as a rule, active = well fitted curve in the direction sought with a large enough effect; inconclusive = small, poorly fitted or top-dose-only effect, or another doubt; inactive = no such curve, though single readings can be large; an effect the other way counts as inactive or inconclusive.

Tests used:
[1] = AP1 Signaling Pathway (AID 357; active = well fitted curve in either direction with a large enough effect, not every such curve was filed as active; inconclusive = small, poorly fitted or top-dose-only effect, or another doubt;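 note: ME-180 reporter cells stimulated with EGF at its EC50 level; top concentration of the series differs between compounds; % is set by controls: 0 for no effect and ±100 for the full control effect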); settings: ME-180 (cervical carcinoma) AP-1-bla reporter, EGF-induced, beta-lactamase ratio, 5 h; at 17.2 µM (top of the series)
In short: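 Read-out was the 460nm/530nm emission ratio (excitation 405nm) after CCF4 loading for 2.5 hours at room temperature. Cells carried an AP-1-driven beta-lactamase reporter, were stimulated with EC50 EGF plus compound for 5 hours, and AC50 values came from titrations.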

[2] = molecular target: 3',5'-cyclic-AMP phosphodiesterase 4B (Homo sapiens) (UniProt Q07343); assay: qHTS Assay for Inhibitors of PDE-IV (AID 607; active = well fitted activation curve with a large enough effect in the main read-out, with a control signal flat, not every such curve was filed as active; inconclusive = small, poorly fitted or top-dose-only effect, or effect the other way, or a change in a side signal; note: potency is the fitted concentration of half-maximal effect); settings: HEK293 ACTOne CNG channel cells, membrane potential fluorescence; activation (PDE inhibition): at 22.9 µM (top of the series)
In short: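 The readout is membrane depolarisation from a cAMP-sensing CNG channel, detected with a potential dye at ex 535/em 590. Cells were HEK293-derived (endogenous PDE-IV) at 1000 cells/well, titrated up to 22.9 uM final.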

[3] = molecular target: Cytochrome P450 3A4 (Homo sapiens) (UniProt P08684); assay: qHTS Assay for Activators of Cytochrome P450 3A4 (AID 885); note: potency is the fitted concentration of half-maximal effect; nearly all actives have a fitted effect of over 65% in size
In short: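 Steps: enzyme/substrate mix dispensed; compound added, 10 min RT; NADPH regeneration solution added, 60 min RT; luciferin detection buffer stops reaction; 20 min later luminescence measured.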

[4] = molecular target: Ubiquitin carboxyl-terminal hydrolase 1 (Homo sapiens) (UniProt O94782); assay: Inhibitors of USP1/UAF1: Pilot qHTS (AID 504865);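 note: rhodamine fluorescence freed from ubiquitin-rhodamine substrate followed over time; top concentration of the series differs between compounds; % is set by controls: 0 for no effect and ±100 for the full control effect; nearly all actives have a fitted effect of over 35% in size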
In short: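 In 50mM HEPES pH 7.8 containing 0.5mM EDTA, 1mM TCEP, 0.1 mg/ml BSA and 0.01% Tween-20, 1nM USP1/UAF1 is exposed to compound for 15 min, then Ub-Rho (150nM final) is added and fluorescence is read over time.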

[5] = molecular target: Glucocorticoid receptor (Homo sapiens) (UniProt P04150); assay: qHTS assay for small molecule agonists of glucocorticoid receptor signaling (AID 588532; active = well fitted curve in the direction sought with a large enough effect in the signal ratio, with a control signal flat; inconclusive = small, poorly fitted or top-dose-only effect, or a change in a side signal; inactive = no such curve, though single readings can be large or run the other way; the % refers to the signal ratio; note: potency is the fitted concentration of half-maximal effect); settings: HeLa MMTV-bla, beta-lactamase ratio, agonist, 18 h; activation: active compounds read high, percent of dexamethasone control, DMSO zero
In short: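 Quantitative HTS using CellSensor MMTV-bla HeLa cells in charcoal/dextran-treated serum; compounds tested up to 92 uM. After 18 h at 37 C, CCF4 dye reported reporter induction.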

[6] = molecular target: Peroxisome proliferator-activated receptor delta (Homo sapiens) (UniProt Q03181); assay: qHTS assay for small molecule agonists of peroxisome proliferator-activated receptor delta signaling (AID 588534; calls by dose curve; note: potency is the fitted concentration of half-maximal effect); settings: HEK293T PPARdelta-UAS-bla, beta-lactamase ratio, 18 h; activation: at 76.7 µM (top of the series)
In short: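 Reporter cells were plated and held 5 hrs at 37 C before compounds were added. After 18 hrs at 37 C, CCF4 dye was loaded for 2 hrs at RT and fluorescence measured.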

[7] = molecular target: Peroxisome proliferator-activated receptor delta (Homo sapiens) (UniProt Q03181); assay: qHTS assay for small molecule antagonists of peroxisome proliferator-activated receptor delta signaling (AID 588535; active = well fitted inhibition curve with a large enough effect in the signal ratio, with a control signal flat, not every such curve was filed as active; inconclusive = small, poorly fitted or top-dose-only effect, or effect the other way, or a change in a side signal; inactive = no such curve, though single readings can be large or run the other way; the % refers to the signal ratio); settings: HEK293T PPARd-UAS-bla, beta-lactamase FRET ratio, 18 h; activity change, negative = inhibition: at 76.7 µM (top of the series)
In short: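 Cell-based beta-lactamase assay in antagonist mode: 4000 HEK293T PPAR-delta-UAS-bla cells per well, 5 hr preincubation then 18 hr compound incubation at 37 C. IC50 obtained by Hill equation fitting.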

[8] = molecular target: Peroxisome proliferator-activated receptor gamma (Homo sapiens) (UniProt P37231); assay: qHTS assay for small molecule agonists of peroxisome proliferator-activated receptor gamma signaling (AID 588536; active = well fitted curve in the direction sought with a large enough effect in the signal ratio, with a control signal flat, not every such curve was filed as active; inconclusive = small, poorly fitted or top-dose-only effect, or effect the other way, or a change in a side signal; inactive = no such curve, though single readings can be large or run the other way; the % refers to the signal ratio;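 note: 0% = DMSO basal wells and 100% = rosiglitazone at 2 µM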); settings: HEK293 PPARg-UAS-bla, beta-lactamase ratio, 16 h; activation: at 76.7 µM (top of the series), percent of rosiglitazone response, DMSO as zero
In short: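 Test agents, titrated, stimulated HEK293 UAS-bla cells overnight (16 h, 37 C). Substrate CCF4 was then added for two hours at room temperature before fluorescence reading.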

[9] = molecular target: Peroxisome proliferator-activated receptor gamma (Homo sapiens) (UniProt P37231); assay: qHTS assay for small molecule antagonists of peroxisome proliferator-activated receptor gamma signaling (AID 588537; active = well fitted inhibition curve with a large enough effect in the signal ratio, with a control signal flat, not every such curve was filed as active; inconclusive = small, poorly fitted or top-dose-only effect, or effect the other way, or a change in a side signal; the % refers to the signal ratio;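 note: reporter cells co-stimulated with 50 nM rosiglitazone agonist during compound treatment; potency is the fitted concentration of half-maximal effect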); settings: HEK293 PPARg-UAS-bla, beta-lactamase ratio, antagonist mode; activity, negative = inhibition: at 76.8 µM (top of the series)
In short: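 Inhibitors of agonist-stimulated UAS-bla reporter activity were sought in HEK293 cells; rosiglitazone (50 nM) defined full signal and DMSO baseline. Curves fitted to Hill model gave IC50 and efficacy.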

[10] = molecular target: Retinoic acid receptor RXR-alpha (Homo sapiens) (UniProt P19793); assay: qHTS assay for small molecule agonists of retinoid X receptor alpha signaling (AID 588544; calls by dose curve; note: potency is the fitted concentration of half-maximal effect); settings: HEK293T RXRa-UAS-bla, beta-lactamase reporter, 18 h; activation: at 76.7 µM (top of the series)
[11] = molecular target: Retinoic acid receptor RXR-alpha (Homo sapiens) (UniProt P19793); assay: qHTS assay for small molecule antagonists of retinoid X receptor alpha signaling (AID 588546; active = well fitted inhibition curve with a large enough effect in the signal ratio, with a control signal flat, not every such curve was filed as active; inconclusive = small, poorly fitted or top-dose-only effect, or effect the other way, or a change in a side signal; inactive = no such curve, though single readings can be large or run the other way; the % refers to the signal ratio;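 note: cells stimulated with 9-cis-retinoic acid as agonist; % is set by controls: 0 for no effect and ±100 for the full control effect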); settings: HEK293T RXRa-UAS-bla, beta-lactamase ratio, antagonist mode
In short: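 Beta-lactamase reporter inhibition, read as CCF4 fluorescence ratio (ex 405, em 460/530 nm) after 2 h at RT. HEK293T UAS-bla cells, 2500/well, were stimulated with 9-cis-RA at 500 or 100 nM final alongside test compound for 18 h at 37 C.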

[12] = molecular target: Thyroid hormone receptor beta (Homo sapiens) (UniProt P10828); assay: qHTS assay for small molecule antagonists of thyroid hormone receptor beta signaling (AID 588547; active = well fitted inhibition curve with a large enough effect in the signal ratio, with a control signal flat, not every such curve was filed as active; inconclusive = small, poorly fitted or top-dose-only effect, or effect the other way, or a change in a side signal; the % refers to the signal ratio;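 note: cells stimulated with 0.4 nM T3 agonist during compound exposure; % is set by controls: 0 for no effect and ±100 for the full control effect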); settings: TR-UAS-bla HEK293, beta-lactamase ratio, antagonist mode, 18 h
In short: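 Inhibition of T3-driven (0.4nM final) beta-lactamase reporter activity was measured over 0.59 nM to 92 uM compound after 18 h at 37 C. The cells were GripTite HEK293 TR-UAS-bla in charcoal/dextran-stripped serum, with CCF4 ratio read-out and IC50 from Hill fits.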

[13] = molecular target: Luciferin 4-monooxygenase (Photinus pyralis) (UniProt P08659); assay: Biochemical firefly luciferase enzyme assay for NPC (AID 624030); note: potency is the fitted concentration of half-maximal effect; nearly all actives have a fitted effect of over 70% in size
In short: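 Direct inhibition of firefly luciferase enzyme (10 nM final, 50 mM Tris Acetate) assessed by luminescence within 5 minutes. Percent activity scaled between DMSO and PTC124 positive control, with concentration-effect curves classified by fit quality and response.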

[14] = S16 Schwann cell PMP22 intronic element beta-lactamase assay (AID 624044; calls by dose curve;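 note: 0% = DMSO and -100% = potassium clavulanate positive control; nearly all actives have a fitted effect of over 15% in size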); settings: S16 rat Schwann cells, PMP22 element beta-lactamase FRET, 24 h; ratio activity, negative = inhibition: at 38.3 µM (top of the series) unless noted
In short: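 Rat S16 Schwann cells with beta-Lac driven by a PMP22 intronic element, compound-treated 24 h at 37 °C. LiveBLAzer FRET B/G read: 460 nm normalized to potassium clavulanate vs DMSO; 535 nm FRET as viability; concentration-effect curves classified.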

[15] = qHTS assay for small molecule agonists of the antioxidant response element (ARE) signaling pathway (AID 651741; active = well fitted activation curve with a large enough effect in the signal ratio; inconclusive = small, poorly fitted or top-dose-only effect, or effect the other way, or a change in a side signal; the % refers to the signal ratio; note: potency is the fitted concentration of half-maximal effect); settings: HepG2 ARE-bla reporter, beta-lactamase FRET ratio, 16 h; activation: at 96 µM (top of the series)
In short: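 Seeding 2,000 ARE-bla HepG2 cells per well preceded a 5 h incubation at 37 C/5% CO2 and a 16 h compound exposure at 37 C. Beta-lactamase reporter activity was then quantified by fluorescence after 2 h with LiveBLAzer B/G FRET substrate.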

[16] = molecular target: Peroxisome proliferator-activated receptor alpha (Homo sapiens) (UniProt Q07869); assay: qHTS assay for small molecule agonists of the peroxisome proliferator-activated receptor alpha (PPARalpha) signaling pathway (AID 651778); settings: PathHunter PPARalpha complementation, chemiluminescence, 6 h; note: potency is the fitted concentration of half-maximal effect
In short: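 Chemiluminescence from complemented enzyme reported PPARalpha activation in cells after 6 hr of compound treatment at 37 C. The detection reagent was incubated for 60 min at room temperature, and compounds were scored as agonists.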

[17] = qHTS of pediatric cancer cell lines to identify multiple opportunities for drug repurposing: Primary screen for SK-N-MC cells (AID 1347093); settings: SK-N-MC viability, CellTiter-Glo luminescence, 48 h; activity change, negative = cytotoxic: at 46 µM (top of the series); note: potency is the fitted concentration of half-maximal effect
In short: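 Metabolically active cells were quantified by ATP-dependent luminescence (CellTiter-Glo, 15 min at room temperature) following 48 h treatment. Cells had been plated at 500-1,000 per well and settled for 5 h beforehand.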

[18] = qHTS of pediatric cancer cell lines to identify multiple opportunities for drug repurposing: Primary screen for BT-37 cells (AID 1347094);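 note: plate controls were DMSO for no effect and bortezomib for full effect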
In short: (§1)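 Following a 5-hour attachment period, cells at 500-1,000/well received compounds and were cultured for 48 hours. CellTiter-Glo was added and luminescence read to estimate viable, metabolically active cells.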

[19] = qHTS of pediatric cancer cell lines to identify multiple opportunities for drug repurposing: Primary screen for MG 63 (6-TG R) cells (AID 1347105); settings: MG 63 (6-TG R) viability, CellTiter-Glo, 48 h; activity change, negative = cytotoxic: at 46 µM (top of the series); note: % is set by controls: 0 for no effect and ±100 for the full control effect; nearly all actives have a fitted effect of over 50% in size
In short: as §1

[20] = qHTS of pediatric cancer cell lines to identify multiple opportunities for drug repurposing: Primary screen for Rh30 cells (AID 1347107); note: % is set by controls: 0 for no effect and ±100 for the full control effect; nearly all actives have a fitted effect of over 75% in size
In short: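 Cells (500-1,000/well) rested 5 h, then received compounds for 48 h; metabolically active cells were measured by CellTiter-Glo luminescence. Final concentrations spanned up to 46 µM (MIPE, 11-point) or 0.59 nM-46 µM (NPC, 8-point) in primary screens, 11-point in follow-ups.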

[21] = A High-Content qHTS Against Drug Library for the Identification of Small Molecules that Inhibit DYT1 Early Onset Primary Dystonia-Associated Cell Pathology (AID 1645839; calls by dose curve; note: potency is the fitted concentration of half-maximal effect)
In short: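 In this high-content image screen, delE TorsinA mislocalization in inducible Flp-In 293 cells is scored as %pathology, with cell count serving as the counterscreen. Compound exposure lasts 48 h under tetracycline induction in reduced-serum medium.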

[22] = molecular target: Cytochrome P450 2C9 (Homo sapiens) (UniProt P11712); assay: Cytochrome P450 family 2 subfamily C member 9 (CYP2C9) small molecule antagonists: luciferase biochemical (cell-free) qHTS assay (AID 1645842; active = well fitted curve in the direction sought with a large enough effect in the repeat runs; inconclusive = weak or mixed curves; inactive = no such curve, though single readings can be large; an effect the other way counts as inactive or inconclusive; note: potency is the fitted concentration of half-maximal effect; nearly all actives have a fitted effect of over 55% in size)
In short: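 Luminescence, after 20 min with luciferin detection reagent, reflected CYP2C9 turnover during a 1 h NADPH-driven reaction at 37C. Enzyme-substrate mix contained 0.4% bovine serum albumin and was preincubated with compound 10 min at room temperature.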

[23] = Primary qHTS for inhibitors of nuclear receptor binding SET domain protein 2 (NSD2) in an isogenic RCH-ACV NSD2 p.E1099K mutant (9B) (AID 1645876); settings: activity change, negative = viability loss: at 44.9 µM (top of the series) unless noted; note: % is set by controls: 0 for no effect and ±100 for the full control effect; nearly all actives have a fitted effect of over 70% in size
[24] = test system: HeLa; assay: Primary qHTS to identify gynecologic anti-cancer compounds using libraries of approved drugs and bioactive compounds (AID 1345084); settings: Gynecologic cancer cell panel viability, ATPlite luminescence, 48 h; series mostly up to 57.5 µM; note: % is set by controls: 0 for no effect and ±100 for the full control effect; nearly all actives have a fitted effect of over 55% in size
In short: (§2)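 Luminescence from the ATPlite ATP-monitoring reagent indicates viable cell number; lower signal means cytotoxicity. Cells received compound 16 h after seeding and were exposed for 48 h across five concentrations.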

[25] = test system: SKOV3; assay: as above; settings: Gynecologic cancer cell panel viability, ATPlite luminescence, 48 h; series mostly up to 57.5 µM
In short: as §2

[26] = Drug repurposing screens with cells derived from glioblastoma tumor samples (AID 1345199); settings: GBM patient neurospheres viability, ATP luminescence, 48 h; Potency: tumour line A unless noted; activity, negative = cell killing: at 46 µM (top of the series), tumour line A unless noted; note: % is set by controls: 0 for no effect and ±100 for the full control effect; nearly all actives have a fitted effect of over 40% in size
In short: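 Four patient lines of CD133+ GBM neurospheres were screened at several concentrations; hits were retested in those lines plus three slower-growing GBM lines, using 48-hour treatment and ATP-based viability.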

[27] = test system: CP215; assay: qHTS profiling for inhibitors of Plasmodium falciparum proliferation (AID 504749);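 note: 0% = DMSO vehicle and full inhibition = artemisinin control; nearly all actives have a fitted effect of over 60% in size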; settings: P. falciparum in erythrocytes, SYBR Green DNA, 72 h; series mostly up to 28.7 µM
In short: (§3)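 Three-day growth assay of blood-stage parasites in erythrocytes (0.3% parasitemia, 2.5% hematocrit) at 37 C, 5% CO2, quantified by SYBR Green DNA staining after overnight detergent lysis.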

[28] = test system: CP262; assay: as above; settings: P. falciparum in erythrocytes, SYBR Green DNA, 72 h; series mostly up to 28.7 µM
In short: as §3
Tags give direction and shape of the fitted curve or compound fluorescence and quenching.

Sequence of UniProt P19793 (P19793 whole entry, looked up): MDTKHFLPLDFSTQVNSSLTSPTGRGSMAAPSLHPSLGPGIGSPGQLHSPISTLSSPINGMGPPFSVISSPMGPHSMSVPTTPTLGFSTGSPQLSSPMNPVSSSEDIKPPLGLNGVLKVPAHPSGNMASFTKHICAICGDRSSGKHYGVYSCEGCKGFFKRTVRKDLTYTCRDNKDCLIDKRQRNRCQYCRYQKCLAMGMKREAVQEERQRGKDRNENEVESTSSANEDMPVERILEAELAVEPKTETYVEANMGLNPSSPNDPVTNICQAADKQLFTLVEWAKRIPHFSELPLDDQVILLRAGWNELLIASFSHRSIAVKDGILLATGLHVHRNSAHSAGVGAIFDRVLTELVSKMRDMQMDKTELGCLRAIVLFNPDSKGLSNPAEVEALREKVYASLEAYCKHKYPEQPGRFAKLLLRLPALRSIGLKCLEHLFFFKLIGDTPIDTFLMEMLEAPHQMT
Sequence of UniProt O94782 (O94782 whole entry, looked up): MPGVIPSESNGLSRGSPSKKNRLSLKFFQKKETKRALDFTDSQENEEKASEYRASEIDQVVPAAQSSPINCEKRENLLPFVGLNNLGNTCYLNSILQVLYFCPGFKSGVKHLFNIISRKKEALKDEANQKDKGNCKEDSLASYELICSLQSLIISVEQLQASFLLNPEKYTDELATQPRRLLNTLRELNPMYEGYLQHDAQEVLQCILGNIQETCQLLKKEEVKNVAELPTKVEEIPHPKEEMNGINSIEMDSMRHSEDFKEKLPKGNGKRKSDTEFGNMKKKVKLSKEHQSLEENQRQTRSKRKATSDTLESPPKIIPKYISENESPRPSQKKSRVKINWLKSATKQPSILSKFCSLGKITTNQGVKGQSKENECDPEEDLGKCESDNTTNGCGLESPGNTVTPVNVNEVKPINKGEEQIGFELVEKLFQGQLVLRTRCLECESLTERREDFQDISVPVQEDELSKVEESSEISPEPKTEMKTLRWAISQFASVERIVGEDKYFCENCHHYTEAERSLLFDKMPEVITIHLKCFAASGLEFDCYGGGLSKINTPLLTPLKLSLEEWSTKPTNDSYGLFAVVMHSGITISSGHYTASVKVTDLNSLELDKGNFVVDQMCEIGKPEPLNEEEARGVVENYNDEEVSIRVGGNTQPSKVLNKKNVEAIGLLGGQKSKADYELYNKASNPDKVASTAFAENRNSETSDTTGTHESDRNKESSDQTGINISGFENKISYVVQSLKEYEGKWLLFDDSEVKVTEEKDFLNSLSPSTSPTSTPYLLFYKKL
Sequence of UniProt Q03181 (Q03181 whole entry, looked up): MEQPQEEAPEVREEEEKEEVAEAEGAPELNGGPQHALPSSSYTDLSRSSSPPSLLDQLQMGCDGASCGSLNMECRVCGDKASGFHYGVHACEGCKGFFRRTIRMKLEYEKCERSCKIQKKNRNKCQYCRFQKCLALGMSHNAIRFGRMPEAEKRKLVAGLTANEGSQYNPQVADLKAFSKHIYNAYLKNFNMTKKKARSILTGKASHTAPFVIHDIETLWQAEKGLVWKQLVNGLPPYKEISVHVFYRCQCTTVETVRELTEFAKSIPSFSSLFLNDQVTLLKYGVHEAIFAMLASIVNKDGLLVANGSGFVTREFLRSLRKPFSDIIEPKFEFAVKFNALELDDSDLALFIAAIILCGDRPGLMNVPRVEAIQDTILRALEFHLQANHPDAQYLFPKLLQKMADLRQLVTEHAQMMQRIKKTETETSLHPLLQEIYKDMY
Sequence of UniProt P08684 (P08684 whole entry, looked up): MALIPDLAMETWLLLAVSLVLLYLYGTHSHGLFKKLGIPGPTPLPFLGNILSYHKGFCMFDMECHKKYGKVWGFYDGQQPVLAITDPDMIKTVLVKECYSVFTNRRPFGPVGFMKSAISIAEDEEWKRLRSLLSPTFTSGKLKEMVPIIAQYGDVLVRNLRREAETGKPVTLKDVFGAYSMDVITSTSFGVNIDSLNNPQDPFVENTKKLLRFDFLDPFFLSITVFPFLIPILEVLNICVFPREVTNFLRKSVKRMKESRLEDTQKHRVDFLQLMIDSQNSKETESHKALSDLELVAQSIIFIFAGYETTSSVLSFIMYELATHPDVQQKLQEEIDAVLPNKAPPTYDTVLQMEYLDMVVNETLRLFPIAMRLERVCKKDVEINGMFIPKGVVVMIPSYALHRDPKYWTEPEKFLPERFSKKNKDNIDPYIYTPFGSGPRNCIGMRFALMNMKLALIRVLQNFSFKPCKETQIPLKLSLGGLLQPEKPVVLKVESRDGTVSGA
Sequence of UniProt Q07343 (Q07343 whole entry, looked up): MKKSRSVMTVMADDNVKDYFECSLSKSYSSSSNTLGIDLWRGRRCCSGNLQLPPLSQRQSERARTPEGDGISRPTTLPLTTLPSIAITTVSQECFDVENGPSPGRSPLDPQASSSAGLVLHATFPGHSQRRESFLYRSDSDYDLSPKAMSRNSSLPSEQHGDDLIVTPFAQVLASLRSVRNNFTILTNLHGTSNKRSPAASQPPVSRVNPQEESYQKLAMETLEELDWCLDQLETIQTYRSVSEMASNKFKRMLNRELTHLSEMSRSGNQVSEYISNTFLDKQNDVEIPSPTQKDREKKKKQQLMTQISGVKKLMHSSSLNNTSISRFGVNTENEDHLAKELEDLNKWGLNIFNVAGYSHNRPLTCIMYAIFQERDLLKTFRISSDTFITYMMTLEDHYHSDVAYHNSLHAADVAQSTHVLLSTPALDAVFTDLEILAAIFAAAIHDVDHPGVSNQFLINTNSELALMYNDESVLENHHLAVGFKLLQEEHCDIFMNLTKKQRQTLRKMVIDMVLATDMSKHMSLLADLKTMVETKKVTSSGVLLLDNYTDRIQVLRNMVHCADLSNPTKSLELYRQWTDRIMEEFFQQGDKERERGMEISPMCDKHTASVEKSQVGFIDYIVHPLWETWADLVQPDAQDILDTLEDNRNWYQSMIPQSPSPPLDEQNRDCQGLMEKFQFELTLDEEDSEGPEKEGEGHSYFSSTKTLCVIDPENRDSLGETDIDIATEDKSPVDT
Sequence of UniProt P10828 (P10828 whole entry, looked up): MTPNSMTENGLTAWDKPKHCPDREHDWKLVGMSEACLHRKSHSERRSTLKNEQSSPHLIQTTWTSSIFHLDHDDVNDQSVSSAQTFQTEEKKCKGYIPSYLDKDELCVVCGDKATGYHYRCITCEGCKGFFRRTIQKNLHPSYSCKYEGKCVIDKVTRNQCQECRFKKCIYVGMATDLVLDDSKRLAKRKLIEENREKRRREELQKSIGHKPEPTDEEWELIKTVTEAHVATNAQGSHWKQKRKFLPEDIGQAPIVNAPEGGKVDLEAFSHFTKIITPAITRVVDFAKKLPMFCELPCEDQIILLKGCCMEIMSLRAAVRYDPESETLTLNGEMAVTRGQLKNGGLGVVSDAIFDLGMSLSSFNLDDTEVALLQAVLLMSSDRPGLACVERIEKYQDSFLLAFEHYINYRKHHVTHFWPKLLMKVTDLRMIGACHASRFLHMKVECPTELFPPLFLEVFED
Sequence of UniProt P11712 (P11712 whole entry, looked up): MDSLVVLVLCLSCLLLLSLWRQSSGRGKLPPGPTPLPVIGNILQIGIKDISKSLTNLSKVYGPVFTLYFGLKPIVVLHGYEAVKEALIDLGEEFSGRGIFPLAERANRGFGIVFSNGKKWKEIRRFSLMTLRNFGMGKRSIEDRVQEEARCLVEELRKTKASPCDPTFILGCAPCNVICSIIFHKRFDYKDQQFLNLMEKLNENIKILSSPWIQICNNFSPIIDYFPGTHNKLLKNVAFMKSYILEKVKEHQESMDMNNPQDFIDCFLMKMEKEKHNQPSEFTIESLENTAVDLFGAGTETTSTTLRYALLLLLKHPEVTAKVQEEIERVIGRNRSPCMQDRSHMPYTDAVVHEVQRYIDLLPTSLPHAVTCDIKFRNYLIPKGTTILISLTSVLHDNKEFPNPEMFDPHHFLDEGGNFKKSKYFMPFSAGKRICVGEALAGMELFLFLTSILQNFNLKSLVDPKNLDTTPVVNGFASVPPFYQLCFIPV
Sequence of UniProt P08659 (P08659 whole entry, looked up): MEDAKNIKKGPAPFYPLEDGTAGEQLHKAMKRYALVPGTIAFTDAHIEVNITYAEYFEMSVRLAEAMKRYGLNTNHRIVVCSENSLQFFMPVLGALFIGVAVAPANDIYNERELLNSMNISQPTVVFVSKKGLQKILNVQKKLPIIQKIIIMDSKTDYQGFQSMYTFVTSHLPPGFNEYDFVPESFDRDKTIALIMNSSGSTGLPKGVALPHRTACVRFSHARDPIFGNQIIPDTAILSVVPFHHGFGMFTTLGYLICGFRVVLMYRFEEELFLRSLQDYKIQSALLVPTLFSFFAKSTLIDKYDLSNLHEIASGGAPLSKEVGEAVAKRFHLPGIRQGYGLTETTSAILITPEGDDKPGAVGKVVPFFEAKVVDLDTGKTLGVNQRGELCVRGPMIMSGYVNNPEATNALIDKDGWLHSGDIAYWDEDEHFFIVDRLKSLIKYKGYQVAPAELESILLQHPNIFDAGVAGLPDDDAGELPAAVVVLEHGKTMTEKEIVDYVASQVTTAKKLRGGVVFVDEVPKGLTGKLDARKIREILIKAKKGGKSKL
Sequence of UniProt Q07869 (Q07869 whole entry, looked up): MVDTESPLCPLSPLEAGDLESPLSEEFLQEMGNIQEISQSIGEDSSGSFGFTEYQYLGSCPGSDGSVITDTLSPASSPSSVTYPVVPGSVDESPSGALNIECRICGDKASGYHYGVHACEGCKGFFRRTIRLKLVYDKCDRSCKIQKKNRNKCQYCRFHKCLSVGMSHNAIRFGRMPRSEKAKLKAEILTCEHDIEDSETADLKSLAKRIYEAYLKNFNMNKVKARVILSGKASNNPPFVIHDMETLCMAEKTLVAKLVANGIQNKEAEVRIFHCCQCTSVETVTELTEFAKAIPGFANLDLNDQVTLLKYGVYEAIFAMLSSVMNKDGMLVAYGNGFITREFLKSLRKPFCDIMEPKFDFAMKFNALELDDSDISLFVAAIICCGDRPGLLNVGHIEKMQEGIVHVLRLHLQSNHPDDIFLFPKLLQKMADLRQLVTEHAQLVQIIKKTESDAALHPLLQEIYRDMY

Cc1cccc(Nc2ccccc2C(=O)O)c1C
inconclusive: activity change, negative = inhibition [1] 2.14% [inhibitor] | Potency [2] 15.1 µM [rising, single point] | Potency [3] 12.6 µM [activator, partial curve] and 10 µM [activator, partial curve] | Potency [5] 44.7 µM [side channel, falling, partial curve, poor fit] | Potency [6] 39.8 µM [fluorescent, side channel, partial curve] | activity change, negative = inhibition [7] 33.1% | activation [8] -0.232% | Potency [9] 31.6 µM [side channel, rising, partial curve, poor fit] | Potency [10] 39.8 µM [fluorescent, side channel, partial curve, poor fit] | max response [11] -0.867% | activity change % (negative = inhibition) [12] 31.7% | Potency [13] 28.7 µM [inhibitor, partial curve] | ratio activity, negative = inhibition [14] -6.69% | Potency [16] 35.5 µM [activator, partial curve] | Potency [17] 26.6 µM [cytotoxic, single point] | Potency [21] 14.1 µM [inhibitor, single point] | Potency [22] 27.5 µM [inhibitor, single point]
active: Potency [15] 61.1 µM
inactive: Potency [4] | Potency [18] | Potency [19] | Potency [20] | Potency [23] | Potency [24] | Potency [25] | Potency [26] | Potency [27] | Potency [28]
